From paper PMC4336329 (PLoS ONE, 2015)
Hit rate of the full screen: of about 310,000 compounds, about 2,200 (0.71%) showed an effect of 50% or more. Effects have a minus sign here. This is one part of the list.

target: human ether-à-go-go-related gene (hERG) potassium channel (human, UniProt Q12809); assay: primary screen, population patch clamp on CHO cells stably expressing hERG
Sequence (Q12809 whole entry, looked up): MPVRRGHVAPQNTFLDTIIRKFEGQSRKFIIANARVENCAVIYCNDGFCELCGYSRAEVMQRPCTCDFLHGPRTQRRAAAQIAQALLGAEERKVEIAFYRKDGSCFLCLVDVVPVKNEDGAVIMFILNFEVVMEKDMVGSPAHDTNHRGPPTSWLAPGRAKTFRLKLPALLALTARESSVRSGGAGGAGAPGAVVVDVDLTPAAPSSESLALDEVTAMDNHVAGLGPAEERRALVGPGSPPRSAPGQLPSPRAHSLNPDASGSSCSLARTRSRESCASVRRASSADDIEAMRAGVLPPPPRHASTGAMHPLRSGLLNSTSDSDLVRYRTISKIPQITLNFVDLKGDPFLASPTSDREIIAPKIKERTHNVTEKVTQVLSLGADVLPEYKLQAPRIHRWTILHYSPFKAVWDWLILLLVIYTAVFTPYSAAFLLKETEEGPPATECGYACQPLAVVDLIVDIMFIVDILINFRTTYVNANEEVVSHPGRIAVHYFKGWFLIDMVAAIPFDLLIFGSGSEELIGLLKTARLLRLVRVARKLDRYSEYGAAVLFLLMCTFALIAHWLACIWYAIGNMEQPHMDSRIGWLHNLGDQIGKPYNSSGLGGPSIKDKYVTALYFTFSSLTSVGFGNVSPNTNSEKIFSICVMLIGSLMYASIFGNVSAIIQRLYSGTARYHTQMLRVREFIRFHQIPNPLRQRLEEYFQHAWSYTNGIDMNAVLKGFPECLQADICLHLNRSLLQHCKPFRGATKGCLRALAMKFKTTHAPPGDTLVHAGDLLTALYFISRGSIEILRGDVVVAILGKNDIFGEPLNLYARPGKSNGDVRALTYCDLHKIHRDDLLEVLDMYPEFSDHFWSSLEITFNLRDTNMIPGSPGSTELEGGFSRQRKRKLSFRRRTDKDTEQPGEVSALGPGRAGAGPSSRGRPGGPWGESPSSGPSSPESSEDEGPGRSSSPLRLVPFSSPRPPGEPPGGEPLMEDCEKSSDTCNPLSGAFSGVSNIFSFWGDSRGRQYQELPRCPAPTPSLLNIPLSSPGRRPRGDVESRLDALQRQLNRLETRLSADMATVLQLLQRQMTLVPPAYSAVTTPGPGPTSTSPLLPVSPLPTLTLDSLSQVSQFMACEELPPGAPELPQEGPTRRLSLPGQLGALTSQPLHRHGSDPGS

Row | Structure (SMILES) | hERG current change (%, negative = inhibition) at 1uM [%]
1 | N#Cc1cnn(CC2CCCCC2)c1N | 7.07
2 | O=C(CN(c1ccccc1)S(=O)(=O)c1ccccc1)N/N=C/c1ccco1 | -1.61
3 | Cc1cc(C(F)(F)F)c(C#N)c(SCC(=O)NC2CC2)n1 | 2.36
4 | CCCCN(CC)Cc1c(O)ccc2c(-c3ccccc3)cc(=O)oc12 | 4.93
5 | CC1(C)OC1COc1c2occc2cc2ccc(=O)oc12 (stereo not drawn) | 13.6
6 | Cc1ccc2c(c1)N(CC(=O)NC1CCCC(C)C1C)C(=O)c1cccnc1O2 (stereo not drawn) | 6.52
7 | COc1ccc(C(=O)NCC(C)NC(=O)c2ccc(OC)c(Br)c2)cc1Br (stereo not drawn) | -6.01
8 | CCCc1nc2ccccc2c(C(=O)OC2CCOC2=O)c1CC (stereo not drawn) | 1.89
9 | CCOc1ccc(NC(=O)CN(C)C(=O)CC(NC(=O)c2ccccc2)c2ccccc2)cc1OCC (stereo not drawn) | -3.2
10 | CCOC(=O)C1CCCN(C(=O)c2ccc3c(c2)N(C)C(=O)/C(=C/c2ccccc2Cl)S3)C1 (stereo not drawn) | 4.44
11 | COC(=O)CSc1nc(-c2ccc(F)cc2)cc(C(F)(F)F)n1 | 15
12 | OC1(c2ccccc2Cl)NN=C2CCCCCN21 (stereo not drawn) | 9.28
13 | Cc1ccccc1OCC(=O)NC(=S)Nc1ccc(N2CCOCC2)c(Cl)c1 | 9.77
14 | CN(CC(=O)Nc1ccc(Cl)cc1)C(=O)c1ccc(N2CCCC2=O)cc1 | 9.27
15 | COc1cc(/C=N/NC(=O)c2cccnc2)ccc1OS(=O)(=O)c1ccc(C)cc1 | 8.24
16 | Cc1ccc(Nc2nc(-c3c(C)n(C)n(-c4ccccc4)c3=O)c(C)s2)cc1 | 6.69
17 | CN1CCN(C(=O)C2CC(=O)N(c3ccc(F)c(Cl)c3)C2)CC1 (stereo not drawn) | 13.5
18 | CCOc1c(Br)cc(Br)cc1/C=C1\SC(N)=NC1=O | 17.8
19 | CN(C)CCN1C(=O)c2oc3ccccc3c(=O)c2C1c1ccc(F)cc1 (stereo not drawn) | -2.93
20 | CC(C)C(=O)Nc1ccc(NC(=O)c2ccco2)cn1 | 8.74
21 | CCn1c(SCC(=O)N/N=C/C=C/c2ccco2)nnc1-c1ccccc1 | -1.54
22 | COc1ccc(Cc2nc3ccc(C(=O)NCC4CCOCC4)cc3o2)cc1OC | 12.6
23 | Cc1ccc(C(=O)C(=O)c2ccc(C)c(N)c2)cc1N | 4.71

Row | Structure (SMILES) | hERG current change (%, negative = inhibition) at 1uM [%]
24 | Nc1nonc1C(=O)N1CCCCC1 | 3.32
25 | CC(C)n1c(N2CCN(C(=O)c3cccs3)CC2)nc2ccccc21 | -26.9
26 | N#CC1=C(N)OC2=C(CCc3ccccc32)C1c1ccccc1 (stereo not drawn) | 2.68
27 | N#CC1=C2C=Cc3ccccc3N2CCCC1=O | 3.2
28 | CC(Sc1nc(N2CCCCC2)c2c(c1C#N)CCCC2)C(=O)O (stereo not drawn) | 16.5
29 | COc1cc(C(=O)NCC(=O)NCCN2C(=O)S/C(=C\c3ccc4c(c3)OCO4)C2=O)cc(OC)c1OC | 16.1
30 | Clc1ccc(-c2nc(-c3cnccn3)no2)cc1 | 10.9
31 | CCC(Oc1ccccc1)C(=O)Nc1cc(C)on1 (stereo not drawn) | 3.64
32 | CC(C1CC1)N(Cc1ccccc1)C(=S)Nc1ccccc1Cl (stereo not drawn) | 3.13
33 | Cc1nn(C(C)C(=O)N2CCc3ccccc3C2)c(=O)c2cc3occc3n12 (stereo not drawn) | -2.66
34 | CC(C)(C)NC(=O)CC(CC(=O)O)c1ccccc1 (stereo not drawn) | 11.3
35 | CCOC(=O)/C(C(=O)Nc1ccc(Cl)cc1Cl)=C1/NC(C)(C)Cc2ccccc21 | 3.52
36 | CON1C(=O)C(=O)N(OC)C(C)(C)C1(C)C | 9.25
37 | Cc1ccccc1-n1c(Cn2c(=O)sc3ccccc32)nnc1SCC(=O)N1CCCC1 | 3.49
38 | CCN1CCN(C(=O)Cn2ncc3c2-c2ccccc2OC3)CC1 | 0.123
39 | O=C(NCc1ccccn1)Nc1ccc(F)cc1F | 6.04
40 | CCOc1ccc(N=C2NC(=O)S/C2=C\c2ccc(N(C)C)cc2)cc1 | -6.59
41 | Cc1nc(NS(=O)(=O)c2ccccc2)sc1NC(=O)Nc1ccc(Cl)cc1 | 8.65
42 | CCS(=O)(=O)Nc1cc2c3c(c1)CCN3C(=O)CC2 | -6.92
43 | COc1ccc(C(=O)CSc2nnc(CNC(=O)c3ccccc3)o2)cc1 | 9.7
44 | CCOC(=O)CN1C(=O)N[C@@H](c2ccco2)C(C(=O)OC)=C1C | 19.5
45 | COC(=O)[C@@]1(Cc2ccc(OC)cc2)[C@H]2c3cc(C(=O)N(C)C)n(C[C@H](O)CO)c3C[C@H]2CN1C(=O)c1ccccc1 | 16.5
